Data from PubChem BioAssay AID1768 (National Center for Advancing Translational Sciences (NCATS), 2009).
The whole screen tested about 270,000 compounds, of which about 620 (0.23%) were called active. Inconclusive means that the source gave no clear call. Such entries were picked first, then a sample of the others. Calls come from the whole dose curve; as a rule, active = well fitted inhibition curve with a large enough effect in the polarisation, with a control signal flat (not every such curve was filed as active); inconclusive = small, poorly fitted or top-dose-only effect, or effect the other way, or a change in a side signal; inactive = no such curve, though single readings can be large or run the other way; the % refers to the polarisation. A potency beside an inconclusive call is a rough fit, not a confirmed value. A note “side channel” means that the fit belongs to a control or component signal, not to the main read-out.
Potency is the fitted concentration of half-maximal effect; tags give direction and shape of the fitted curve or compound fluorescence and quenching.
Throughout, for FP activity change, negative = inhibition: % of control where 0% means no effect.

The compounds below were run against Menin (Homo sapiens) (UniProt O00255) (assay: qHTS Assay for Inhibitors Targeting the Menin-MLL Interaction in MLL Related Leukemias: Competition With Texas Red Labeled MLL-derived Mutant Peptide). Settings: fluorescence polarization; FP activity change, negative = inhibition: at 61.6 µM (top of the series).
UniProt O00255, sequence (O00255 whole entry, looked up): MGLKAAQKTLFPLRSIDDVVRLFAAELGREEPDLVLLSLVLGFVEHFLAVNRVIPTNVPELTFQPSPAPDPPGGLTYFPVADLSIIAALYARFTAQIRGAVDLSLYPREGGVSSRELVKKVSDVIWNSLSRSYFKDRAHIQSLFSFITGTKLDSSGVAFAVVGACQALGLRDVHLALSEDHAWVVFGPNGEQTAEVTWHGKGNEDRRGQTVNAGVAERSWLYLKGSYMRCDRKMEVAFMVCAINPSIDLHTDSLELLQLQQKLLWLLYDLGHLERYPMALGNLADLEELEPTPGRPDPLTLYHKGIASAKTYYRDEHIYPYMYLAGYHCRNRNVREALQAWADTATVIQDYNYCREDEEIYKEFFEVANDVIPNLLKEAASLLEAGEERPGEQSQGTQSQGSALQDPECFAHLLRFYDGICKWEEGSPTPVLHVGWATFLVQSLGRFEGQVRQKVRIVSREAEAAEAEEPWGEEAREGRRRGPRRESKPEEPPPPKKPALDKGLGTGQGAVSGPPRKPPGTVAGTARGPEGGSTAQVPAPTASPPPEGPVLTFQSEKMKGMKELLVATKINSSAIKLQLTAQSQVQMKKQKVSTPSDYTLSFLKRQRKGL
In the case of `COc1ccc(-c2nn(-c3ccccc3)cc2C(=O)Nc2ccc(C(=O)O)cc2)cc1OC`, the Potency is reported as inconclusive: 35.5 µM [quencher, side channel, single point]. For `CSc1nc2ccccc2c(=O)n1C1CCCCC1`, the Potency was inconclusive: 28.2 µM [fluorescent, side channel, partial curve]. In the case of `O=c1cc(CN2CCN(c3ccccc3)CC2)nc2scc(-c3ccccc3)n12`, the Potency is reported as inconclusive: 25.1 µM [quencher, side channel, single point]. `Cc1ccc(N/C=C(\C#N)c2ccc(OCCCF)cc2)cc1` was tested, and the Potency was inconclusive: 17.8 µM [quencher, side channel, single point]. For `CC(C)(C)c1nn(-c2ccccc2)c2nc(Cl)c(C=O)cc12`, the “FP activity change, negative = inhibition” value was inactive: -1.68%. In the case of `COC(=O)C(Cc1cccc(C)n1)(c1ccccc1)c1ccccc1`, the Potency is reported as inconclusive: 22.4 µM [fluorescent, side channel, single point]. For `Cn1c(N)c(C(=O)COC(=O)/C=C/c2ccc(OC(F)F)cc2)c(=O)n(C)c1=O`, the Potency was inconclusive: 35.5 µM [quencher, side channel, single point]. In the case of `Oc1csc(Cc2nc(-c3ccc(Br)cc3)cs2)n1`, the Potency is reported as inconclusive: 12.6 µM [quencher, side channel, partial curve]. In the case of `O=C(CSc1nnc2c3ccccc3c3ccccc3c2n1)Nc1ccccc1`, the Potency is reported as active: 12.6 µM. For `O=c1cc(Nc2ccc3c(c2)OCCO3)[nH]c(=O)n1Cc1ccc(F)cc1`, the Potency was inconclusive: 25.1 µM [quencher, side channel, single point]. `CN(c1ccccc1)P(=O)(N(C)c1ccccc1)N(C)c1ccccc1` was tested, and the Potency was inconclusive: 5.62 µM [fluorescent, side channel, partial curve]. In the case of `O=C(COC(=O)C12CC3CC(CC(C3)C1)C2)NC12CC3CC(CC(C3)C1)C2`, the Potency is reported as inconclusive: 5.01 µM [inhibitor, full curve, poor fit]. In the case of `COc1ccccc1NC(=O)c1c(Nc2ccccc2F)sc(C(=O)Nc2cccc(Cl)c2)c1N`, the Potency is reported as inconclusive: 3.55 µM [quencher, side channel, full curve]. `COc1ccc2c(/C=N/Nc3ccc(C(=O)O)cc3)c[nH]c2c1` was tested, and the Potency was inconclusive: 17.8 µM [quencher, side channel, partial curve]. For `Fc1ccc(C2=NN(c3ccccc3)C(c3ccco3)C2)cc1` (stereo not drawn), the Potency was inconclusive: 17.8 µM [quencher, side channel, partial curve]. `O=C(Nc1cccc(Cl)c1N1CCCC1)c1ccco1` was tested, and the “FP activity change, negative = inhibition” value was inactive: -23.3%. For `O=C(O)c1ccc(-c2ccccc2C(F)(F)F)s1`, the “FP activity change, negative = inhibition” value was inactive: 0.225% [at 94.6 µM]. In the case of `Cc1cccc(Nc2nc(N)c([N+](=O)[O-])c(N3CCC(C)CC3)n2)c1`, the Potency is reported as inconclusive: 17.8 µM [quencher, side channel, partial curve]. `CC(C)CCC1=NN(C(=O)c2ccco2)C(O)(C(F)(F)F)C1` (stereo not drawn) was tested, and the Potency was inconclusive: 10 µM [inhibitor, partial curve]. `COc1ccc(/C=C/C(=O)OCC(=O)NCCC2=CCCCC2)cc1` was tested, and the Potency was inconclusive: 8.91 µM [fluorescent, side channel, partial curve]. In the case of `COCCN(C(=O)Cn1nnc2ccccc21)C(C(=O)NC1CCCC1)c1cccc(OC)c1OC` (stereo not drawn), the Potency is reported as inconclusive: 1 µM [fluorescent, side channel, full curve]. For `COc1ccc(/C=C/C(=O)Nc2cc(C(F)(F)F)ccc2Cl)cc1OC`, the Potency was inconclusive: 20 µM [quencher, side channel, partial curve]. In the case of `O=C(CSc1ccsc1[N+](=O)[O-])Nc1cccc(F)c1`, the Potency is reported as inconclusive: 25.1 µM [quencher, side channel, partial curve]. In the case of `Cc1cc(N2CCCCC2)nc2ccc(NC(=O)c3ccc(Br)o3)cc12`, the Potency is reported as inconclusive: 14.1 µM [quencher, side channel, partial curve]. For `COc1cc(OC)c(NS(=O)(=O)c2cccc(C(=O)OCC(=O)NCC3CCCO3)c2)cc1Cl` (stereo not drawn), the “FP activity change, negative = inhibition” value was inactive: 5.67%. For `Cc1ccc(-c2nc3ccccc3s2)cc1NC(=S)NC(=O)c1cccc2ccccc12`, the Potency was active: 11.2 µM. For `Cc1ccn2c(CNCCn3cccn3)c(C(=O)N3CCCCCC3)nc2c1`, the Potency was inconclusive: 11.2 µM [fluorescent, side channel, partial curve]. In the case of `Cc1onc(C(=O)Nc2sc3c(c2C#N)CCCC3)c1[N+](=O)[O-]`, the Potency is reported as inconclusive: 17.8 µM [quencher, side channel, partial curve]. `Cc1ccc(-c2nc(C(=O)NCCCN(C)C)cc3c2[nH]c2ccccc23)cc1` was tested, and the Potency was inconclusive: 39.8 µM [inhibitor, single point]. `OCCCc1nc2ccccc2n1CCCCOc1ccccc1` was tested, and the Potency was inconclusive: 22.4 µM [fluorescent, side channel, single point]. For `C=CCn1c(C)c(/C=C/c2cc[n+](C)cc2)c2ccccc21`, the “FP activity change, negative = inhibition” value was inactive: -18.7%. With `COc1cccc(N=Nc2ccc3ccccc3c2O)c1` the Potency was inconclusive: 35.5 µM [fluorescent, side channel, single point]. With `Cc1cc(=O)[nH]c(SCC(=O)N2CCC(C(N)=O)CC2)n1` the “FP activity change, negative = inhibition” value was inactive: 0.142%. In the case of `COc1ccc(-n2c(C)cc(C(=O)CCl)c2C)cc1`, the Potency is reported as inconclusive: 14.1 µM [fluorescent, side channel, partial curve]. `Cc1ccc2nc(/C(C#N)=C\c3ccc(Oc4ccc([N+](=O)[O-])cn4)cc3)[nH]c2c1` was tested, and the Potency was inconclusive: 12.6 µM [quencher, side channel, partial curve]. In the case of `O=C(NC(=S)Nc1cc(-c2nc3ccccc3[nH]2)ccc1Cl)c1ccc2c(c1)OCO2`, the Potency is reported as inconclusive: 20 µM [inhibitor, partial curve]. For `Nc1ccc(NC(=O)NC2CCCCC2)cc1[N+](=O)[O-]`, the Potency was inconclusive: 14.1 µM [quencher, side channel, partial curve]. With `COc1ccccc1CN=Cc1[nH]c2ccc(Br)c(Cl)c2c1O` the Potency was inconclusive: 22.4 µM [quencher, side channel, single point].
